Data from PubChem BioAssay AID1508624 (National Center for Advancing Translational Sciences (NCATS), 2021).
The whole screen tested about 48,000 compounds, of which about 120 (0.25%) were called active. Roughly 4% stayed inconclusive and do not appear here. Calls come from the whole dose curve; as a rule, active = well fitted activation curve with a large enough effect; inconclusive = small, poorly fitted or top-dose-only effect, or another doubt; inactive = no such curve, though single readings can be large or run the other way. The list shows a part of the results.

Test: Primary qHTS for Identification of Small Molecule Activators of Huntingtin-Antisense Promoter Activity; note: nearly all actives have a fitted effect of over 55% in size
Details: HEK293 HTT-AS promoter firefly luciferase reporter, 24 h; series mostly up to 57.5 µM; activity change, positive = activation: at the top concentration
How it was run: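 HEK293 Fluc reporter, 2,500 cells/well, 24 h pre-culture; cpds up to 57.5 uM final, 24 h 37 degrees C; Dual-Glo, 10 min RT; normalized vehicle = 0%, zero RLU = -100%.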

Activity change, positive = activation, inactive:
COc1ccc(S(=O)(=O)c2c(Nc3c(C)cccc3C)sc(C(=O)c3ccc4c(c3)OCO4)c2N)cc1 -42.8%
Cc1ccc(-n2nc3c(=O)n(CC(=O)NC(C)C)nc(C)c3c2C)cc1 -10.4%
CCC(CC)C(=O)Nc1ccc2nc(SCc3ccccc3)sc2c1 -16.3%
CS(=O)(=O)c1ncc(Cl)c(C(=O)Nc2c(C(=O)Nc3ccccc3)oc3ccccc23)n1 -3.55%
Cc1cccc(Nc2ncc(NC(=O)c3cccc(F)c3)c(Nc3cccc(C)c3)n2)c1 -28.9%
NCCc1nnc(SCc2ccc(Cl)cc2)o1 -7.29%
COc1ccccc1C(=O)Nc1nc2ccc(S(=O)(=O)N3CCCC3)cc2s1 3.94%
CCN(CC)C(=S)SSC(=S)N(CC)CC
Clc1ccc(CCNc2ncnc3c2c(-c2ccccc2)cn3-c2ccccc2)cc1 -13.1%
COc1ccc(C(=O)CN2C(=O)N(c3cc(C)cc(C)c3)S(=O)(=O)c3ccccc32)cc1 -21.4%
Cc1cc(OCCCS(C)(=O)=O)cc(C)c1-c1cccc(COc2ccc3c(c2)OC[C@H]3CC(=O)O)c1 -27.9%
COc1ccccc1CNC(=O)Cn1ncc2c(=O)oc3ccc(C)cc3c21 -1.55%
Cc1ccc(Nc2c(-c3ccc(C)cc3)nc3cnccn23)cc1 -22.1%
Cc1ccccc1CS(=O)(=O)Cc1ccc(C(=O)NCCc2ccccc2)o1 -10.8%
CCOC(=O)c1ccc(Nc2c(-c3ccc(O)cc3)nc3nc[nH]n23)cc1 -26.6%
COc1cc(C(=O)Nc2cc(C)ccc2OCc2cc(=O)n3cc(C)sc3n2)cc(OC)c1OC -13%
COc1cccc(-c2nc3c(c(SCc4ccccc4)n2)Cc2c(CO)cnc(C)c2O3)c1 -1.12%
CN(C)CC=CC(=O)Nc1cc2c(Nc3ccc(F)c(Cl)c3)ncnc2cc1O[C@H]1CCOC1 -45.2%
NC(=O)c1cc(S(=O)(=O)NCc2ccccc2)cs1 -22.1%
CCCn1c(=O)n(-c2ccccc2)c(=O)c2sc3ccccc3c21 -11.1%
COc1cc(CCc2cc(NC(=O)c3ccc(N4C[C@@H](C)N[C@@H](C)C4)cc3)n[nH]2)cc(OC)c1 -21.6%
CN(C(=O)CCNC(=O)Cn1cnc2ccccc2c1=O)c1ccccc1F -11.8%
C=CCc1c(C)nc2nc(SCC(=O)Nc3ccccc3CC)nn2c1C 3.15%
CCOc1ccc(CCNC(=O)CN2CCN(Cc3ccc(F)cc3Cl)C2=O)cc1OCC -18.4%
CCCOc1ccccc1C(=O)N1CCC(c2nc3ccccc3s2)CC1 1.99% [at 11.5 µM, percent change from vehicle, -100% = no light]
CCOC(=O)CSc1nc2cc3c(cc2c(=O)n1CCCC(=O)NCc1ccc2c(c1)OCO2)OCO3 -9%
CC(C)Cc1nn2c(=O)cc(COC(=O)c3cccc(NC(=O)CCc4ccccc4)c3)nc2s1 5.53%
C=Cc1ccc(CSc2nc(-c3ccc(OC)cc3)nc3c2Cc2c(CO)cnc(C)c2O3)cc1 -11.3%
CCOC(=O)c1c(C)c(C(=O)NCCc2ccc(OC)cc2)c(C)n1C -5.35%
CCc1nn(CC(=O)Nc2cccc(C)c2C)c(=O)c2cc3sccc3n12 -11.6%
Cc1ccc(CCNC(=O)C2CCCN(Cc3nc(-c4cccc(Cl)c4)oc3C)C2)cc1 (stereo not given) -64.5%
CN(C(=O)CSc1cn(CC(=O)N2CCCCC2)c2ccccc12)c1ccccc1 -5.27%
COc1ccc(-c2noc(C3CC(=O)N(c4cc(C)cc(C)c4)C3)n2)cc1 (stereo not given) 0.69%
COc1ccc(/C=C/c2nc(C#N)c(N3CCN(c4ccccc4)CC3)o2)cc1OC -13%
O=C(Cc1ccc(F)cc1)N1CCC(c2nc3c(nnn3Cc3ccc(Cl)cc3)c(=O)[nH]2)CC1 -28.4%
Cc1ccc2nc(-c3ccccn3)c(Nc3ccc(F)cc3)n2c1 -53%
CCC(C)NC(=O)c1ccc2c(c1)N(Cc1ccccc1)C(=O)c1ccccc1S2(=O)=O (stereo not given) -15.4%
CCC(Oc1ccccc1)C(=O)Nc1ccccc1OCc1cc(=O)n2ccccc2n1 (stereo not given) 2.7%
CC1=C(C(=O)Nc2ccc(Cl)cc2)C(C(C)C)n2nc(SCc3cccc(C)c3)nc2N1 (stereo not given) 7.97%
CCOC(=O)C1CCCN(c2ncnc3c2cnn3-c2ccc(C)c(Cl)c2)C1 (stereo not given) -11.7%
Cn1c(=O)c2c(SCC(=O)NCc3ccco3)nc(-c3ccccc3Cl)nc2n(C)c1=O -10.7%
Cc1ccc(NC(=O)CSc2nc3c(c(=O)[nH]2)CN(Cc2ccc4c(c2)OCO4)CC3)cc1C 17.4%
CC(C)c1ccc(CNCCSc2nnnn2C)cc1 -8.39%
CCc1ccccc1NC(=O)c1cc(S(=O)(=O)NCCc2ccc(OC)c(OC)c2)ccc1F -27%
CC(=O)Nc1c(C)nn(-c2ccccc2)c1N1CCC(C(=O)Nc2cc(Cl)ccc2C)CC1 21.3%
Cc1nnc(NC(=O)c2nc(S(=O)(=O)Cc3ccccc3)ncc2Cl)s1 -93.5%
CCOc1ccc(NC(=O)C(C)Sc2nnc3cc(C)c4ccccc4n23)cc1 (stereo not given) -0.245%
O=C(O)[C@@H]1CSCN1 -9.55%
C=C[C@@]1(C)CC(=O)[C@]2(O)[C@@]3(C)[C@@H](O)CCC(C)(C)[C@@H]3[C@H](O)[C@H](OC(C)=O)[C@@]2(C)O1 -5.3%
Cc1cccc(NC(=O)C(=O)NCC(c2cccnc2)N2CCOCC2)c1 (stereo not given) -3.55%
CCCOc1ccc(C2c3c(-c4ccccc4O)n[nH]c3C(=O)N2Cc2ccncc2)cc1OCC (stereo not given) -23%
Cc1cc2nc3ccc(=[N+](C)C)cc-3sc2cc1N -20.2%
COc1ccc(C)cc1NC(=O)C(=O)NCCc1csc(-c2ccc(C)cc2)n1 -3.12%
Cc1ccc(C)c(NC(=O)CCNS(=O)(=O)c2ccc3c(c2)CCCC(=O)N3)c1 -19.9%
COCCNC(=O)c1ccc2c(c1)N(Cc1cccc(Cl)c1)C(=O)c1ccccc1S2=O (stereo not given) -13.6%
CCOC(=O)c1cc(-c2ccccc2)n(CC(=O)NCc2ccccc2OC)c1C -20.7%
Fc1ccc(CNc2ncnc3c2c(-c2ccccc2)cn3-c2ccccc2)cc1 -26%
Cn1c(=O)n(C)c2cc(S(=O)(=O)Nc3ccccc3C(=O)O)ccc21 -2.77%
O=C(Nc1ccc(F)c(F)c1)C1CCCN(S(=O)(=O)c2cccc3nonc23)C1 (stereo not given) -14.9%
Cc1ccc(C)c(N2CCN(C(=O)CN3C(=O)CSc4c3c(C)nn4-c3ccccc3)CC2)c1 2.79%
